Source: publication PMC9398005
Results are given in words; binding and its absence hold for the method and conditions named. For some of these results: In cells and extracts the contact can be indirect. Some results given as binding are weak or reduced against the parent protein; the word gives no strength. For some of these results: Where a sequence is shown, tags or fusion partners need not be part of it.

Sequences of proteins named here, by UniProt entry; tags and fusion partners are left off. A change or cut given only in a name is not applied to a line headed by its entry.
UniProt P31266: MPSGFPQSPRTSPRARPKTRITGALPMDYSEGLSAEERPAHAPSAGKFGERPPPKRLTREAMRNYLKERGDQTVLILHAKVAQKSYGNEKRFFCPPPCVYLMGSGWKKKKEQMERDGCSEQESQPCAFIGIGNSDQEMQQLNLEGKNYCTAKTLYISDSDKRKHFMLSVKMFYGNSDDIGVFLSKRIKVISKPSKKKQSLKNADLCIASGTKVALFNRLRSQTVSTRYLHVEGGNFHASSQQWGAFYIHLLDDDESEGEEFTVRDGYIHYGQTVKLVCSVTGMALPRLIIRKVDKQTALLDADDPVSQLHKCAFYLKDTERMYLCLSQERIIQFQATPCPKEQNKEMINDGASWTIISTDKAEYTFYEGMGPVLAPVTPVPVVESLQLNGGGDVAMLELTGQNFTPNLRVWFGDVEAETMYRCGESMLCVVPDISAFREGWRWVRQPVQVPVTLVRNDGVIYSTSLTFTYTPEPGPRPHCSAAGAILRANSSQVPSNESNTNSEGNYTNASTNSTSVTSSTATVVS
UniProt Q62504: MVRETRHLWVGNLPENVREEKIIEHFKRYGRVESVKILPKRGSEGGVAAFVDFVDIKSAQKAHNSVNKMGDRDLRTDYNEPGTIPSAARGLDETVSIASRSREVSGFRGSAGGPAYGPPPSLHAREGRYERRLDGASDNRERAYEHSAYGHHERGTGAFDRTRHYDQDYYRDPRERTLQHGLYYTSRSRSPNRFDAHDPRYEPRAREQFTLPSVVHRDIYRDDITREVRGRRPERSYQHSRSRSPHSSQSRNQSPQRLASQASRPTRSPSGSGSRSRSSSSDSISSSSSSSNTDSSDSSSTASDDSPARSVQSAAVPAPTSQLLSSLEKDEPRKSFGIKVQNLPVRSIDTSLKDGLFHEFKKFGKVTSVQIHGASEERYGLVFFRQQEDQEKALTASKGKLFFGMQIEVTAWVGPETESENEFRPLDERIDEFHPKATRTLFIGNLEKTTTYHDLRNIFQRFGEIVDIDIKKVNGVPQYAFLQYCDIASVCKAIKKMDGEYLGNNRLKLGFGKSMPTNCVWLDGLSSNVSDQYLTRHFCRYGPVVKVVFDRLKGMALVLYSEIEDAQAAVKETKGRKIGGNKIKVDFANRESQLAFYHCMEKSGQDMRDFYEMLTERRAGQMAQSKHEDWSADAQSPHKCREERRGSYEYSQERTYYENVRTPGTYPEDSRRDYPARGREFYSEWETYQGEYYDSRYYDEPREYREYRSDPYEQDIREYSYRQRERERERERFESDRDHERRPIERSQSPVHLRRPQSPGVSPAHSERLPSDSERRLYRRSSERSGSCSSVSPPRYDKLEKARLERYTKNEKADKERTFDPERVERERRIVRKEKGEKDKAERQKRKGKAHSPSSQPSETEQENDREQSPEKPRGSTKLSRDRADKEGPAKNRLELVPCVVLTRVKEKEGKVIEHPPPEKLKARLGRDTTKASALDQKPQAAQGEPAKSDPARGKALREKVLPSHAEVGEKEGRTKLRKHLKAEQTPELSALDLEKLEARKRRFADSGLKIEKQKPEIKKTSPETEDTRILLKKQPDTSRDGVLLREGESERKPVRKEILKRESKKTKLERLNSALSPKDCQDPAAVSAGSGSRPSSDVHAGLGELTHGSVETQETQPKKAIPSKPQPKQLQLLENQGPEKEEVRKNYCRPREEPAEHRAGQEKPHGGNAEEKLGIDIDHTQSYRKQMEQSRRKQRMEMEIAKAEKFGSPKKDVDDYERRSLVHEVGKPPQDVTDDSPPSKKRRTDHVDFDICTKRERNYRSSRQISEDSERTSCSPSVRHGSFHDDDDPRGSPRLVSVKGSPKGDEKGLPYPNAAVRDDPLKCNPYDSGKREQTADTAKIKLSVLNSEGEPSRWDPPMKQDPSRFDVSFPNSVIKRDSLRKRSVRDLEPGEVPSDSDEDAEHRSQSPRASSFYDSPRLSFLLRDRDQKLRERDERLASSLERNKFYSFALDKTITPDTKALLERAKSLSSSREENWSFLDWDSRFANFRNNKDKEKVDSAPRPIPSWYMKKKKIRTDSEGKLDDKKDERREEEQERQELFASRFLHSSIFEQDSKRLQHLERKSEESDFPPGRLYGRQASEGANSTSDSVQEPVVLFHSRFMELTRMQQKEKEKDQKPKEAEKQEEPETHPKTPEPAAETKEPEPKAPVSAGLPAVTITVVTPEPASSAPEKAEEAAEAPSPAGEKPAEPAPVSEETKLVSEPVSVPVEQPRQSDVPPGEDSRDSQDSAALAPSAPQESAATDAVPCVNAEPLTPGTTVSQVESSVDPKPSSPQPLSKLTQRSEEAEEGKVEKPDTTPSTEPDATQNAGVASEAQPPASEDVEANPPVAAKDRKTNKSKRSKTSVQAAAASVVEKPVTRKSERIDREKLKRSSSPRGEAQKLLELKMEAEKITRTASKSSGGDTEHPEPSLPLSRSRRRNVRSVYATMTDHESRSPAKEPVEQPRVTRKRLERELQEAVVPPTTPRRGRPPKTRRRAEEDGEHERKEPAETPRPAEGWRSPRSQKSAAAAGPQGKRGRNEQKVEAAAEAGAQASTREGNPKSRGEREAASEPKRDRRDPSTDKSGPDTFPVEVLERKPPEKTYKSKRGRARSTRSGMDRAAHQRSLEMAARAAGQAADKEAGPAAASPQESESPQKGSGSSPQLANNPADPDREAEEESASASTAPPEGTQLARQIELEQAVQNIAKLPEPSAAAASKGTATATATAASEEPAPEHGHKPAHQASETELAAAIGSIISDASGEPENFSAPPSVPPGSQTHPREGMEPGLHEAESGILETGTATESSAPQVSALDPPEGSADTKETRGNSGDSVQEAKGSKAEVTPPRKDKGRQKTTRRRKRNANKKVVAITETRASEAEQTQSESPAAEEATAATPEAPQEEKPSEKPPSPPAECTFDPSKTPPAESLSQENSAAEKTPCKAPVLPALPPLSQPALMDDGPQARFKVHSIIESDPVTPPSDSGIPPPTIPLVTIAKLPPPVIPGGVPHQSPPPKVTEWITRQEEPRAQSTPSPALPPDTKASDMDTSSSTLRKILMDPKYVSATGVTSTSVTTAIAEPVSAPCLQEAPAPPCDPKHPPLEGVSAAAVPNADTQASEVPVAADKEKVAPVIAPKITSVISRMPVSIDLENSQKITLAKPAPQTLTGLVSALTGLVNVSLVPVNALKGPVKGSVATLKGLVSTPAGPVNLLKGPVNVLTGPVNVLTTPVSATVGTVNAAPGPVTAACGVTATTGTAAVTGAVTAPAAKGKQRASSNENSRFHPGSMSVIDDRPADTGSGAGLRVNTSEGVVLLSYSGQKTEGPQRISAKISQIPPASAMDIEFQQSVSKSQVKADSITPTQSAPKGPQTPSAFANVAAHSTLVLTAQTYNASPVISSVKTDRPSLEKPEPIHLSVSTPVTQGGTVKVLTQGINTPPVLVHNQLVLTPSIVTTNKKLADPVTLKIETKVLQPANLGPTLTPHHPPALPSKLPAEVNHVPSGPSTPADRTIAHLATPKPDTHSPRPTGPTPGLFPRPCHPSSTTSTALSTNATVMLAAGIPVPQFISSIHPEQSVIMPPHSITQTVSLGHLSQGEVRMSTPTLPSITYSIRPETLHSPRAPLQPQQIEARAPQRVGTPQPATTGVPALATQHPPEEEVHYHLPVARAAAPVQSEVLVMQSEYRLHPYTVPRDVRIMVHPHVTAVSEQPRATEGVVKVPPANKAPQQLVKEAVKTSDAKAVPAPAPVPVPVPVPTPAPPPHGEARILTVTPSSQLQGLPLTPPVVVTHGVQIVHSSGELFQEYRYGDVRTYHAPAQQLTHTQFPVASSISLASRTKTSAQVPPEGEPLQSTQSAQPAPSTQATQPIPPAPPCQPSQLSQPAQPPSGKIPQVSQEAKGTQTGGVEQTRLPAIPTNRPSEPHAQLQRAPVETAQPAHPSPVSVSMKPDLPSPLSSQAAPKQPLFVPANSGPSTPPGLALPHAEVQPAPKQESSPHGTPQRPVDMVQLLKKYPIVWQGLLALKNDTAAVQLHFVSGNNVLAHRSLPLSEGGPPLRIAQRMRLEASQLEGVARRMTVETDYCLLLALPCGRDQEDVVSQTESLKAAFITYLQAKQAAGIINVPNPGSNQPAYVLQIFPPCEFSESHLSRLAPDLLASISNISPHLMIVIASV
UniProt Q92585: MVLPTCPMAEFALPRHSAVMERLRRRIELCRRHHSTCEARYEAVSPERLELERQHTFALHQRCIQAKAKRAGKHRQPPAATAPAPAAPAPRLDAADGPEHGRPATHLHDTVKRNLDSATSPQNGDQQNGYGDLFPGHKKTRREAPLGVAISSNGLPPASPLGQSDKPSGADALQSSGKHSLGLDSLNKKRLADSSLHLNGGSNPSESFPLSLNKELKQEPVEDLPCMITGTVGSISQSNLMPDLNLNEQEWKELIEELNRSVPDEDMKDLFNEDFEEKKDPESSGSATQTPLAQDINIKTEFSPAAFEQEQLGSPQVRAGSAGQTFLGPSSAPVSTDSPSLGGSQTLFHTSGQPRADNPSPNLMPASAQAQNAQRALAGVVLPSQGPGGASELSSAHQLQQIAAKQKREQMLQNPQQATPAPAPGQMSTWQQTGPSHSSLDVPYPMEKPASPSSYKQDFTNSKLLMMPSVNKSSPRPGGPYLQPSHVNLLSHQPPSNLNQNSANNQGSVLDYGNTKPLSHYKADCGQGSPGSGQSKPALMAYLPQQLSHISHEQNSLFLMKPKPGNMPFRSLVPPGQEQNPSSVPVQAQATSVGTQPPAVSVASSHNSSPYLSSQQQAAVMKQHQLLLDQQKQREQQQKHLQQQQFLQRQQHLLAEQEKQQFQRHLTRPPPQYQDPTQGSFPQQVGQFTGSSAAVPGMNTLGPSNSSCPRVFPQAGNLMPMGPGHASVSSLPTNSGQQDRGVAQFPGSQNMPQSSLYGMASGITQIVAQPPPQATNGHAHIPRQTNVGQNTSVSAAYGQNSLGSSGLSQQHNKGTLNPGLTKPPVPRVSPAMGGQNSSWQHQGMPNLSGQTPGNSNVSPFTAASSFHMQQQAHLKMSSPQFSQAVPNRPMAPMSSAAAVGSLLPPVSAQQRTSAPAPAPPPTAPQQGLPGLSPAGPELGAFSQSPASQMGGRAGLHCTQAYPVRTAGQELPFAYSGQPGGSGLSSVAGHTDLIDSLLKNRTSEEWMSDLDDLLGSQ

Assays:
[1] = target: T1, Flag-SHARP-(RBPID) (pcDNA-3.1-Flag1-hsSHARP (2770-3127)) (human) (UniProt Q96T58); assay: co-IP; HEK293 cells transfected with GFP-, Flag-tagged or untagged constructs; CHAPS lysate; anti-Flag (M2) agarose overnight at 4°C; Western blot with anti-GFP or anti-Maml1
T1 sequence: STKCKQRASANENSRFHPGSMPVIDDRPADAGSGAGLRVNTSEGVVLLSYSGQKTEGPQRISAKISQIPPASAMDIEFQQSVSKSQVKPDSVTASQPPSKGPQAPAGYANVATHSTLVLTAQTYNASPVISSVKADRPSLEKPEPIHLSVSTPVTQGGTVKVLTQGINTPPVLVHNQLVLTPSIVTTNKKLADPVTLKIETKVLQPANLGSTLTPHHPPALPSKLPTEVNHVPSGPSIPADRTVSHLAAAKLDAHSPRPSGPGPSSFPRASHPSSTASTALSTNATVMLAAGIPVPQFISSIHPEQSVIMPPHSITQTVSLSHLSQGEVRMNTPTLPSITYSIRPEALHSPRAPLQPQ

[2] = target: Flag-Rbpj K195E (pcDNA3-Flag-Rbpj(K195E)) (mouse) (UniProt P31266); assay: as above
[3] = target: Flag-Rbpj WT (pcDNA3-Flag-Rbpj(WT)) (mouse) (UniProt P31266); assay: as above
[4] = target: Flag-Rbpj E89G (pcDNA3-Flag-Rbpj(E89G)) (mouse) (UniProt P31266); assay: as above
[5] = target: Gal4-SHARP (pFA-CMV-MINT) (UniProt Q62504); assay: two-hybrid; mammalian two-hybrid in HeLa cells: Gal4-SHARP (300 ng), Rbpj-VP16 (50 ng), pFR-Luc reporter (500 ng); luciferase

Substance	binding [1]	binding [5]	other results
GFP-Rbpj E89G (from UniProt P31266 1-526)	binds	–	–
GFP-Rbpj K195E (from UniProt P31266 1-526)	binds	–	–
GFP-Rbpj WT (from UniProt P31266 1-526)	binds	–	–
Maml1 (from UniProt Q92585 1-1016)	–	–	binding [2]: binds; binding [3]: binds; binding [4]: binds
Rbpj-VP16 F261A/L388A (from UniProt P31266 1-526)	–	no binding	–
Rbpj-VP16 K195E (pcDNA3-Rbpj-VP16(K195E)) (from UniProt P31266 1-526)	–	binds	–

Continued, in another order:

binding [1]	binding [5]	Substance	other results
–	binds	Rbpj-VP16 E89G (pcDNA3-Rbpj-VP16(E89G)) (from UniProt P31266 1-526)	–
–	binds	Rbpj-VP16 WT (pcDNA3-Rbpj-VP16(WT)) (from UniProt P31266 1-526)	–
